Reference: patent US5786328A, “Use of kunitz type plasma kallikrein inhibitors” (Genentech, Inc., priority 1995, dated 1998)
Part of at least one peptide drawing is inferred or uncertain, most often the ends. Bridges are numbered along the chain shown (N, C = ends). Where no end group is shown, it is not given here.

Assays:
Experiment in all cases: Specificity assay, fraction of remaining proteolytic activity
Assay type in all cases: biochemical
plasma kallikrein = target: T1, plasma kallikrein (Homo sapiens, UniProt P03952); conditions: 100 nM inhibitor; 3.5 nM enzyme
T1 construct: Human plasma kallikrein and Factor XIIa were purchased; purchased Enzyme Research Laboratories, Inc. (South Bend, Ind)

Factor XIa = target: T2, Factor XIa (Homo sapiens, UniProt P03951); conditions: 100 nM inhibitor; […] enzyme
T2 construct: purchased Haematologic Technologies Inc. (Essex Jct., VT)

Factor XIIa = target: T3, Factor XIIa (Homo sapiens, UniProt P00748); conditions: 100 nM inhibitor; 14 nM enzyme
T3 construct: purchased Enzyme Research Laboratories, Inc. (South Bend, Ind)
T3 sequence (P00748 20-372 limits assumed): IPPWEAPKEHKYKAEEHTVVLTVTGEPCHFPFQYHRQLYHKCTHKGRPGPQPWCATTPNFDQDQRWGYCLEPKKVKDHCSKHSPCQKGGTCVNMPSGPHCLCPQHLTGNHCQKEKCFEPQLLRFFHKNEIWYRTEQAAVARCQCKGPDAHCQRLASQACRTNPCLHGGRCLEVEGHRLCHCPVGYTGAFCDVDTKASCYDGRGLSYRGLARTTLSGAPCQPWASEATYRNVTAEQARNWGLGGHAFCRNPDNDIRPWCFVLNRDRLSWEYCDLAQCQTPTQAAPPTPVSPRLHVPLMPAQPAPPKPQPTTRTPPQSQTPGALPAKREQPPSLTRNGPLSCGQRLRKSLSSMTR
T3 sequence (P00748 373-615 limits assumed): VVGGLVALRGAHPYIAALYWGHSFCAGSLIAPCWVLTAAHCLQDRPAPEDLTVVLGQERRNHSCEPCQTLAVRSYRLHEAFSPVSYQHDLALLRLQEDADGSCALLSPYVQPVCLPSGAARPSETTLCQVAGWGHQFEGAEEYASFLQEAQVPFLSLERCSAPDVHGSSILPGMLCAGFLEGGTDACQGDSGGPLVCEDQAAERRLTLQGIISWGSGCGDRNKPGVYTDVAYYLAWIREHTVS

thrombin = target: T4, thrombin (Homo sapiens, UniProt P00734); conditions: 100 nM inhibitor; 6.2 nM enzyme
T4 construct: purchased Haematologic Technologies Inc. (Essex Jct., VT)

TF-FVIIa = target: T5, TF-FVIIa (Homo sapiens, UniProt P08709); conditions: 100 nM inhibitor; TF 77 nM, FVIIa 14 nM
T5 construct: purchased Haematologic Technologies Inc. (Essex Jct., VT) for FVIIa; TF made in house; host or cells: TF1-243: E. coli

activated protein C = target: T6, activated protein C (Homo sapiens, UniProt P04070); conditions: 100 nM inhibitor; 7.6 nM enzyme
T6 construct: purchased Haematologic Technologies Inc. (Essex Jct., VT)

plasmin = target: T7, plasmin (Homo sapiens, UniProt P00747); conditions: 100 nM inhibitor; 32 nM enzyme
T7 construct: Human plasmin, S-2302, S-2251, and S-2366 were purchased from Kabi Vitrum (Sweden); purchased Kabi Vitrum (Sweden)
T7 sequence (P00747 97-580 limits assumed): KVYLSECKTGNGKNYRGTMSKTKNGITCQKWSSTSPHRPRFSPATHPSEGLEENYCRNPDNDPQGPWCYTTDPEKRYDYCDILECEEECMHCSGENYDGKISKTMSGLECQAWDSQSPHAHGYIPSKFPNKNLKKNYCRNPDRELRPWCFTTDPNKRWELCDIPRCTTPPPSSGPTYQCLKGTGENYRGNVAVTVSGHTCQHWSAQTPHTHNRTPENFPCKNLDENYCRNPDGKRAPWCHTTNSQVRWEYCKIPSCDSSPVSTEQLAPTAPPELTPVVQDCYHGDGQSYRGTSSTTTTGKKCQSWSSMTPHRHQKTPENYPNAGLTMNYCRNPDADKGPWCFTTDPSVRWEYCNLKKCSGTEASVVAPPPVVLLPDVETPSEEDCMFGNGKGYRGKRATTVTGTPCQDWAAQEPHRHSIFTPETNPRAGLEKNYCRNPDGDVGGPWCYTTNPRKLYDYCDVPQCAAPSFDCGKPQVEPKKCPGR
T7 sequence (P00747 581-810 limits assumed): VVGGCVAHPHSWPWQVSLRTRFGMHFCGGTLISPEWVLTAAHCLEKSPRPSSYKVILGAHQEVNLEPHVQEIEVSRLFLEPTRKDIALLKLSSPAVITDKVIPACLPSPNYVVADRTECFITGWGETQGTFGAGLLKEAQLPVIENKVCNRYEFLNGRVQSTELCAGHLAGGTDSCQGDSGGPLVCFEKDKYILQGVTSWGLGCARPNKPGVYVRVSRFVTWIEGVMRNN

T5 sequence (P08709 61-212 limits assumed): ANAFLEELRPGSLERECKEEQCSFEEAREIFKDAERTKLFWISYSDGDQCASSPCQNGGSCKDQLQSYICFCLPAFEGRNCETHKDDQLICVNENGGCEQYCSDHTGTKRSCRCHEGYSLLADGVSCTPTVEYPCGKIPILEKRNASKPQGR
T5 sequence (P08709 213-466 limits assumed): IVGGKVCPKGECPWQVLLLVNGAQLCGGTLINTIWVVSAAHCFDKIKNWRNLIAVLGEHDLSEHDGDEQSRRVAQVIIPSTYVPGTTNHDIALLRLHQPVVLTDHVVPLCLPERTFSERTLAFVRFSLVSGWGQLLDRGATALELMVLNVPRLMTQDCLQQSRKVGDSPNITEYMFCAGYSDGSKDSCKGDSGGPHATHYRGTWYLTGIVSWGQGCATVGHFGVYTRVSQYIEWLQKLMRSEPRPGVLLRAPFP
T5 sequence (P13726 33-275 partner limits assumed): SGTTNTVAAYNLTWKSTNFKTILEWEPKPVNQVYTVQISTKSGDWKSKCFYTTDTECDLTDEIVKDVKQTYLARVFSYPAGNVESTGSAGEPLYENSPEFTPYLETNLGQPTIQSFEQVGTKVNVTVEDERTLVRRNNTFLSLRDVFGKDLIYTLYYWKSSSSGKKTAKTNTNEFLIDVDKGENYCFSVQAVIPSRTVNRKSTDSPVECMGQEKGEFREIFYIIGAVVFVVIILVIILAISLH
T1 sequence (P03952 20-390 limits assumed): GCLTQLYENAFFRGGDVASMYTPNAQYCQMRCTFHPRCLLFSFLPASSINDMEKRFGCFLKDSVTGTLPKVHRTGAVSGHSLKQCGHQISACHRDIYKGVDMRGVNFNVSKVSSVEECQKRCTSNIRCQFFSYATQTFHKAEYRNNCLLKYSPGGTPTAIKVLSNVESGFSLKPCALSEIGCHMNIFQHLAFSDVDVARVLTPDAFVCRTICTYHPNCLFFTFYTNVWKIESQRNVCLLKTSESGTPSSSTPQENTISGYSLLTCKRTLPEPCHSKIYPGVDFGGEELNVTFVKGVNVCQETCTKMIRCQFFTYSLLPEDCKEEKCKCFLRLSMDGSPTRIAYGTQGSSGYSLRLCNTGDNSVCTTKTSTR
T1 sequence (P03952 391-638 limits assumed): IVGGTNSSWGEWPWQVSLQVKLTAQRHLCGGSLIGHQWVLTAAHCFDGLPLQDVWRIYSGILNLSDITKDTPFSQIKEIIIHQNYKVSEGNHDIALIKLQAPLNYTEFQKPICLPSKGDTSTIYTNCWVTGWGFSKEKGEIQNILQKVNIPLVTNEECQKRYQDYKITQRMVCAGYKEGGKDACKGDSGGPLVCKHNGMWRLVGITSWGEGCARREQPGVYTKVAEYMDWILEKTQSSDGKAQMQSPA
T6 sequence (P04070 43-197 limits assumed): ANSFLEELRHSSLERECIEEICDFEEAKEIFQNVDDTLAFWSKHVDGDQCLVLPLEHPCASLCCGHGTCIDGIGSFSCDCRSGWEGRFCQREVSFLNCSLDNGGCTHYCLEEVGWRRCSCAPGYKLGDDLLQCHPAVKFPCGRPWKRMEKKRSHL
T6 sequence (P04070 212-461 limits assumed): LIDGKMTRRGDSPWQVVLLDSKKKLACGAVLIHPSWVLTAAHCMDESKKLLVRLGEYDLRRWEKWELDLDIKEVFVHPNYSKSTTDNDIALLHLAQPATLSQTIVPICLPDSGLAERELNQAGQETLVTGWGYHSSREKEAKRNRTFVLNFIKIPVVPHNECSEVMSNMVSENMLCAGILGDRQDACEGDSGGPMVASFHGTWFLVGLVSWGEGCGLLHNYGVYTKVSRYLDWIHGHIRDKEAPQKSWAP
T2 sequence (P03951 19-387 limits assumed): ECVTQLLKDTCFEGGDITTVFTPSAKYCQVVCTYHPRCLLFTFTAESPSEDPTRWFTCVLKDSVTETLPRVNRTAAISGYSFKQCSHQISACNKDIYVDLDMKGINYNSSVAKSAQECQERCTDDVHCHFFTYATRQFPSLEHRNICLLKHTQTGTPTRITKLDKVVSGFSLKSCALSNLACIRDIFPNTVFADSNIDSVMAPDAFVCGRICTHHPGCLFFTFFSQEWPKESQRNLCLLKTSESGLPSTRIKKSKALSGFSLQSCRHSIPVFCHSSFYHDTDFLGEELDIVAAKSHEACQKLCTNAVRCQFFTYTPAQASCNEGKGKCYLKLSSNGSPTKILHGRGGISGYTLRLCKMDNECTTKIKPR
T2 sequence (P03951 388-625 limits assumed): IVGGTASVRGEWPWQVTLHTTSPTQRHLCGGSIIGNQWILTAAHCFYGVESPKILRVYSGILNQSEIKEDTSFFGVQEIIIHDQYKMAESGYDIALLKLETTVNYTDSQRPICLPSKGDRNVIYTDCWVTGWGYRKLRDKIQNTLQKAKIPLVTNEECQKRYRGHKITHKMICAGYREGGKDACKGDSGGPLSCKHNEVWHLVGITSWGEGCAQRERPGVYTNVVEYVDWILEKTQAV

Compound | fraction of remaining proteolytic activity, plasma kallikrein (plasma kallikrein) | fraction of remaining proteolytic activity, Factor XIa (Factor XIa) | fraction of remaining proteolytic activity, Factor XIIa (Factor XIIa) | fraction of remaining proteolytic activity, thrombin (thrombin) | fraction of remaining proteolytic activity, TF·Factor VIIa (TF-FVIIa) | fraction of remaining proteolytic activity, activated protein C (activated protein C) | fraction of remaining proteolytic activity, plasmin (plasmin)
VREVCSEQAEEGHCRAAHPRWYFDVTEGKCAPFFYGGCGGNRNNFDTEEYCAAVCGSA (disulfide 5-55, 14-38, 30-51) [KALI-E] | 0.00 | 0.03 | 1.00 | 0.95 | 0.96 | 0.85 | 
VREVCSEQAEPGHCRAAHPRWYFDVTEGKCAPFFYGGCGGNRNNFDTEEYCAAVCGSA (disulfide 5-55, 14-38, 30-51) [KALI-P] | 0.00 | 0.12 |  | 0.85 | 0.93 | 0.52 | 
VREVCSEQAEPGHCRAAHPRWYFDVTEGKCAPFVYGGCGGNRNNFDTEEYCAAVCGSA (disulfide 5-55, 14-38, 30-51) [KALI-PV] | 0.00 | 0.07 |  | 0.92 | 0.83 | 0.80 | 
CC(C)C[C@@H]1NC(=O)[C@H](C)NC(=O)[C@H](CCCNC(=N)N)NC(=O)[C@@H]2CSSC[C@@H]3NC(=O)CNC(=O)CNC(=O)[C@H](Cc4ccc(O)cc4)NC(=O)[C@H](Cc4ccc(O)cc4)NC(=O)[C@H](Cc4ccccc4)NC(=O)[C@@H]4CCCN4C(=O)[C@H](C)NC(=O)[C@H](CSSC[C@H](NC(=O)[C@H](Cc4ccc(O)cc4)NC(=O)[C@H](CCC(=O)O)NC(=O)[C@H](CCC(=O)O)NC(=O)[C@H]([C@@H](C)O)NC(=O)[C@H](CC(=O)O)NC(=O)[C@H](Cc4ccccc4)NC(=O)[C@H](CC(N)=O)NC(=O)[C@H](CC(N)=O)NC(=O)[C@H](CCCNC(=N)N)NC(=O)[C@H](CC(N)=O)NC(=O)CNC(=O)CNC3=O)C(=O)N[C@@H](C)C(=O)N[C@@H](C)C(=O)N[C@@H](C(C)C)C(=O)N[C@H](C(=O)NCC(=O)N[C@@H](CO)C(=O)N[C@@H](C)C(=O)O)CSSC[C@H](NC(=O)[C@@H](NC(=O)[C@H](CCC(=O)O)NC(=O)[C@H](CCCNC(=N)N)NC(=O)[C@@H](N)C(C)C)C(C)C)C(=O)N[C@@H](CO)C(=O)N[C@@H](CCC(=O)O)C(=O)N[C@@H](CCC(N)=O)C(=O)N[C@@H](C)C(=O)N[C@@H](CCC(=O)O)C(=O)N[C@@H]([C@@H](C)O)C(=O)NCC(=O)N3CCC[C@H]3C(=O)N2)NC(=O)[C@H](CCCCN)NC(=O)CNC(=O)[C@H](CCC(=O)O)NC(=O)[C@H]([C@@H](C)O)NC(=O)[C@H](C(C)C)NC(=O)[C@H](CC(=O)O)NC(=O)[C@H](Cc2ccccc2)NC(=O)[C@H](Cc2ccc(O)cc2)NC(=O)[C@H](Cc2c[nH]c3ccccc23)NC(=O)[C@H](CCCNC(=N)N)NC(=O)[C@H](CO)NC(=O)[C@H](Cc2c[nH]cn2)NC1=O [KALI-38] | 0.00 | 0.02 | 0.97 | 1.00 | 0.45 | 0.97 | 0.19
CC(C)[C@H](N)C(=O)N[C@@H](CCCNC(=N)N)C(=O)N[C@@H](CCC(=O)O)C(=O)N[C@H](C(=O)N[C@H]1CSSC[C@@H](C(=O)NCC(=O)N[C@@H](CO)C(=O)N[C@@H](C)C(=O)O)NC(=O)[C@H](C(C)C)NC(=O)[C@H](C)NC(=O)[C@H](C)NC(=O)[C@@H]2CSSC[C@@H]3NC(=O)[C@H](CCCCN)NC(=O)CNC(=O)[C@H](CCC(=O)O)NC(=O)[C@H]([C@@H](C)O)NC(=O)[C@H](C(C)C)NC(=O)[C@H](CC(=O)O)NC(=O)[C@H](Cc4ccccc4)NC(=O)[C@H](Cc4ccc(O)cc4)NC(=O)[C@H](Cc4c[nH]c5ccccc45)NC(=O)[C@H](CCCNC(=N)N)NC(=O)[C@@H]4CCCN4C(=O)[C@H](Cc4c[nH]cn4)NC(=O)[C@H](C)NC(=O)[C@H](C)NC(=O)[C@H](CCCNC(=N)N)NC(=O)[C@H](CSSC[C@H](NC(=O)CNC(=O)CNC(=O)[C@H](Cc4ccc(O)cc4)NC(=O)[C@H](C(C)C)NC(=O)[C@H](Cc4ccccc4)NC(=O)[C@@H]4CCCN4C(=O)[C@H](C)NC3=O)C(=O)NCC(=O)NCC(=O)N[C@@H](CC(N)=O)C(=O)N[C@@H](CCCNC(=N)N)C(=O)N[C@@H](CC(N)=O)C(=O)N[C@@H](CC(N)=O)C(=O)N[C@@H](Cc3ccccc3)C(=O)N[C@@H](CC(=O)O)C(=O)N[C@@H]([C@@H](C)O)C(=O)N[C@@H](CCC(=O)O)C(=O)N[C@@H](CCC(=O)O)C(=O)N[C@@H](Cc3ccc(O)cc3)C(=O)N2)NC(=O)[C@H](Cc2c[nH]cn2)NC(=O)CNC(=O)[C@H](CCC(=O)O)NC(=O)[C@H](CCC(=O)O)NC(=O)[C@H](C)NC(=O)[C@H](CCC(N)=O)NC(=O)[C@H](CCC(=O)O)NC(=O)[C@H](CO)NC1=O)C(C)C [KALI-EV] | 0.00 | 0.01 | 0.99 | 0.96 | 0.97 |  | 
VREVCSEQAEDGHCRAAHPRWYFDVTEGKCAPFVYGGCGGNRNNFDTEEYCAAVCGSA (disulfide 5-55, 14-38, 30-51) [KALI-DV] | 0.00 | 0.00 |  | 0.89 | 0.79 | 0.85 | 
VREVCSEQAEDGHCRAAHPRWYFDVTEGKCAPFFYGGCGGNRNNFDTEEYCAAVCGSA (disulfide 5-55, 14-38, 30-51) [KALI-D] | 0.00 | 0.02 |  | 0.88 | 0.91 | 0.68 | 
VREVCSEQAEEGHCRAAHPRWYFDVTEGKCAPFYYGGCGGNRNNFDTEEYCAAVCGSA (disulfide 5-55, 14-38, 30-51) [KALI-EY] | 0.00 | 0.02 | 0.99 | 1.00 |  |  | 
VREVCSEQAEPGHCRAAHPRWYFDVTEGKCAPFYYGGCGGNRNNFDTEEYCAAVCGSA (disulfide 5-55, 14-38, 30-51) [KALI-PY] | 0.00 | 0.13 |  | 0.98 | 0.94 | 0.91 | 
